Out of some 43,000 compounds screened, about 200 (0.47%) were called active. About 12% were inconclusive and are not listed. The call rests on the fitted dose curve; in most records, active means well fitted cell-killing curve with a large enough effect; inconclusive means small, poorly fitted or top-dose-only effect, or effect the other way; inactive means flat fitted curve, though single readings scatter. Some of the results follow.
Assay: Cell viability qHTS assay in S16 Pmp22-F2sN cells; further: nearly all actives have a fitted effect of over 65% in size
Details: S16 Pmp22-F2sN Schwann cells (luciferase reporters placed in the Pmp22 gene) viability, CellTiter-Glo, 24 h; series mostly up to 57.5 µM; activity change, negative = cytotoxicity: at the top concentration
Procedure, shortened: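 Luminescence from CellTiter-Glo, read by CCD camera after a 15 min room-temperature incubation, served as the viability signal. Reporter Schwann cells (S16 Pmp22-F2sN) had been treated with pin-transferred compounds for 24 h at 37C.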
On the % scale 0 is the no-effect control and ±100 the full control effect.

Row | SMILES | activity change, negative = cytotoxicity
1 | Cc1cc(O)c(C(c2ccccc2)N2CCN(c3ccccc3)CC2)c(=O)n1Cc1ccco1 (configuration not stated) | inactive: 3.12%
2 | Cn1c(=O)c2c(nc(NCCCCO)n2Cc2ccccc2Cl)n(C)c1=O | inactive: -3.46%
3 | CN1C(=O)CC(C(=O)Nc2ccc(C(=O)O)cc2)SC1=Nc1ccc(Cl)cc1 (configuration not stated) | inactive: 9.33%
4 | CCc1cccc(C)c1NC(=O)CCCn1c(C)c2cnn(-c3ccccc3)c(=O)c2c1C | inactive: -11.5%
5 | CCCCOC(=O)c1ccc(OC(=O)c2sc3ncn(Cc4cccc(F)c4)c(=O)c3c2C)cc1 | inactive: 4.22%
6 | CCOC(=O)c1[nH]c(C)c(CCC(=O)Nc2ccccc2OCC)c1C | inactive: 0.274%
7 | CCC(C)NC(=O)Cn1c(=O)n(CCCCCC(=O)Nc2ccccc2)c(=O)c2sccc21 (configuration not stated) | inactive: 3.71%
8 | CC(=O)c1ccc(NC(=O)C(C)n2nc(-c3ccccc3)ccc2=O)cc1 (configuration not stated) | inactive: -7.98%
9 | CCn1c2ccccc2c2cc(CN3CCN(Cc4ccc(Cl)cc4)CC3)ccc21 | inactive: -10.4%
10 | Cc1ccc2c(=O)cc(C(=O)Nc3ccc(S(=O)(=O)N4CCCCC4C)cc3)oc2c1C (configuration not stated) | inactive: -4.68%
11 | CCN(CC)c1ccc(NS(=O)(=O)c2cc(-c3onc(C)c3C)ccc2OC)c(C)c1 | inactive: -4.12%
12 | CCN(CC)CCCNC(=O)Cn1ncc2c3ccccc3n(Cc3ccccc3)c2c1=O | inactive: 14.9%
13 | COc1cccc(-c2nnc(SCC(=O)N(C)c3ccccc3)o2)c1 | inactive: 0.0321%
14 | CC(=O)Nc1cc(C(=O)NCc2ccc(F)cc2)ccc1S(=O)(=O)c1ccc(C)cc1 | inactive: -1.42%
15 | Cc1c(CNC2CCC(C)CC2)c(C(=O)O)c(C)n1Cc1ccc(Cl)cc1 (configuration not stated) | inactive: 1.4%
16 | CCOC(=O)C(CC)Sc1ncnc2c1c(-c1ccccc1)cn2-c1ccc(OC)cc1 (configuration not stated) | inactive: 2.08%
17 | Cc1ccc(C)c(N(C)C(=O)c2cc3c(s2)-c2ccccc2OC3)c1 | inactive: 13.4%
18 | CCn1c(=O)c2cc(C(=O)NCc3ccc(F)cc3Cl)sc2c2ccccc21 | inactive: 12.4%
19 | Cc1cc(C)c(OCC(=O)N(Cc2ccc(N(C)C)cc2)CC2CCCO2)c(C)c1 (configuration not stated) | inactive: -12.9%
20 | Cc1cc(=O)n(CC(=O)N2CCCc3ccccc32)c2c1c(C)nn2-c1cccc(F)c1 | inactive: -1.29%
21 | CCS(=O)(=O)N1CC(=O)N(c2ccc(Cl)cc2C)C(C)(C(=O)NC2CCCCC2)C1 (configuration not stated) | inactive: -0.0837%
22 | O=C(NCCc1ccc(F)cc1)C(=O)NCC(c1cccs1)S(=O)(=O)c1ccc(Cl)cc1 (configuration not stated) | inactive: -5.35%
23 | O=C(CSc1nnc(-c2ccccc2)c(-c2ccccc2)n1)NCCc1ccccc1 | inactive: -11%
24 | Cc1ccc(CNC(=O)CN(C)S(=O)(=O)c2ccc3c(c2)c(=O)n(C)c(=O)n3C)cc1 | inactive: 1.86%

Row | SMILES | activity change, negative = cytotoxicity
25 | CCOc1ccc(N(C)S(=O)(=O)c2cc(-c3cc(C)no3)ccc2OC)cc1 | inactive: -18.1%
26 | COC(=O)c1c(NC(=O)COc2ccc(C)cc2Br)sc2c1CCCC2 | inactive: 1.92%
27 | Cc1cccc(NC(=O)C2CCCN(S(=O)(=O)c3ccc4c(c3)oc(=O)n4C)C2)c1C (configuration not stated) | inactive: 3.18%
28 | CCc1ccccc1NC(=O)CN1C(=O)C2CCCN2c2ccc(S(=O)(=O)N(CC)CC)cc21 (configuration not stated) | inactive: -10.3%
29 | COc1cccc(N2C(=O)C(CC(=O)Nc3ccccc3)N(CCc3sccc3C)C2=O)c1 (configuration not stated) | inactive: -17%
30 | Cc1ccccc1C(=O)Nc1ccccc1OCc1cc(=O)n2ccccc2n1 | inactive: 8.09%
31 | Cc1ccc(C(=O)NCC(c2ccc3c(c2)OCO3)N2CCN(c3ccc(F)cc3)CC2)cc1 (configuration not stated) | inactive: 7.52%
32 | CCOc1ccccc1NC(=O)Cn1c(=O)n(Cc2nc(C)no2)c(=O)c2ccccc21 | inactive: 2.65%
33 | Clc1ccccc1CNc1ncnc2c1nc1n2CCCC1 | inactive: -4.8%
34 | Cc1cccc(-c2nc(S(=O)(=O)c3ccc(Cl)cc3)c(N3CCCCCC3)o2)c1 | inactive: -1.18%
35 | Cc1cccc(CS(=O)(=O)Cc2ccc(C(=O)NCc3ccccc3)o2)c1 | inactive: -15.3%
36 | CCOc1ccc(C2CC(=O)NC(NC(=O)c3ccc(C)cc3)=N2)cc1 (configuration not stated) | inactive: -2.02%
37 | COc1ccc(NC(=O)Cn2c(=O)n(CCC(C)C)c(=O)c3cccnc32)cc1Cl | inactive: 0.833%
38 | COc1cccc(-c2nc(SCC(=O)NCC3CCCO3)c(-c3ccc(C)cc3)[nH]2)c1 (configuration not stated) | inactive: 0.244%
39 | Cc1ccc(OCC(=O)N(Cc2ccc(Cl)cc2)Cc2ccco2)cc1C | inactive: 8.14%
40 | CCOc1ccc(NC(=O)c2cc3c(C)nn(-c4ccccc4)c3s2)cc1 | inactive: -6.76%
41 | Cc1cc(C)cc(NC(=O)c2cc(C)nc3c2c(C)nn3-c2ccccc2)c1 | inactive: 2.91%
42 | Cc1cccc(Cn2cc(/C=C(/C#N)C(=O)Nc3cccc(Cl)c3)c3ccccc32)c1 | inactive: 7.7%
43 | Cc1ccc(Cn2c(C(=O)O)c(CNC3CCCCC3)c3ccc(C)cc32)cc1 | inactive: 9.83%
44 | CCN(C(=O)c1cc2c(=O)oc3ccccc3c2s1)c1ccc(C)c(C)c1 | inactive: 22.9%
45 | CC(C)NC(=O)C1CCC(Cn2c(=O)c3sccc3n(CC(=O)N3CCCC3)c2=O)CC1 (configuration not stated) | inactive: 2.49%
46 | COc1ccc(NC(=O)c2ccc3c(=O)n4nc(Nc5ccccc5C)sc4nc3c2)cc1Cl | inactive: -4.55%
47 | Cc1ccccc1Nc1cc(C(=O)NC2CCCC2)c2ccccc2n1 | inactive: 6.28%
